Test results taken from paper PMC9911399, “Two distinct binding modes provide the RNA-binding protein RbFox with extraordinary sequence specificity”.
Changes are numbered by the printed parent chain; changes in the protein carry UniProt numbers. The list shows a part of the results.

B1: ACGACCC (DNA:RNA)
RNA: GGGAGACCGGAAUUCAGAUUGUCCACGACCCUUAAAUCCCGUCGUAGCCACCA
DNA 1: CAATCTGAATTCCGGTCTCCC
DNA 2: TGGTGGCTACGACGGGATT
B2: ACCCAAC (DNA:RNA)
RNA: B1 RNA with G27C, A28C, C29A, C30A
DNA 1: CAATCTGAATTCCGGTCTCCC
DNA 2: TGGTGGCTACGACGGGATT
B3: CGCUGCG (DNA:RNA)
RNA: B1 RNA with A25C, C26G, G27C, A28U, C29G, C31G
DNA 1: CAATCTGAATTCCGGTCTCCC
DNA 2: TGGTGGCTACGACGGGATT
B4: UUAGUAA (DNA:RNA)
RNA: GGGAGACCGGAAUUCAGAUUGUCCUUAGUAAUUAAAUCCCGUCGUAGCCACCA
DNA 1: CAATCTGAATTCCGGTCTCCC
DNA 2: TGGTGGCTACGACGGGATT
B5: CUGUAUC (DNA:RNA)
RNA: B1 RNA with A25C, C26U, A28U, C29A, C30U
DNA 1: CAATCTGAATTCCGGTCTCCC
DNA 2: TGGTGGCTACGACGGGATT
B6: GAGUAUU (DNA:RNA)
RNA: B1 RNA with A25G, C26A, A28U, C29A, C30U, C31U
DNA 1: CAATCTGAATTCCGGTCTCCC
DNA 2: TGGTGGCTACGACGGGATT
B7: UGAUGAG (DNA:RNA)
RNA: B4 RNA with U26G, G28U, U29G, A31G
DNA 1: CAATCTGAATTCCGGTCTCCC
DNA 2: TGGTGGCTACGACGGGATT
B8: GAGUUAU (DNA:RNA)
RNA: B4 RNA with U25G, U26A, A27G, G28U, A31U
DNA 1: CAATCTGAATTCCGGTCTCCC
DNA 2: TGGTGGCTACGACGGGATT
B9: UGUUAUU (DNA:RNA)
RNA: B4 RNA with U26G, A27U, G28U, U29A, A30U, A31U
DNA 1: CAATCTGAATTCCGGTCTCCC
DNA 2: TGGTGGCTACGACGGGATT
B10: CACCACA (DNA:RNA)
RNA: B1 RNA with A25C, C26A, G27C, A28C, C29A, C31A
DNA 1: CAATCTGAATTCCGGTCTCCC
DNA 2: TGGTGGCTACGACGGGATT
B11: UGCACGU (DNA:RNA)
RNA: B1 RNA with A25U, C26G, G27C, C30G, C31U
DNA 1: CAATCTGAATTCCGGTCTCCC
DNA 2: TGGTGGCTACGACGGGATT
B12: GAGCGAC (DNA:RNA)
RNA: B1 RNA with A25G, C26A, A28C, C29G, C30A
DNA 1: CAATCTGAATTCCGGTCTCCC
DNA 2: TGGTGGCTACGACGGGATT
B13: CGACGCG (DNA:RNA)
RNA: B1 RNA with A25C, C26G, G27A, A28C, C29G, C31G
DNA 1: CAATCTGAATTCCGGTCTCCC
DNA 2: TGGTGGCTACGACGGGATT
B14: CAGCCUA (DNA:RNA)
RNA: B1 RNA with A25C, C26A, A28C, C30U, C31A
DNA 1: CAATCTGAATTCCGGTCTCCC
DNA 2: TGGTGGCTACGACGGGATT
B15: CAAGUCU (DNA:RNA)
RNA: B4 RNA with U25C, U26A, A30C, A31U
DNA 1: CAATCTGAATTCCGGTCTCCC
DNA 2: TGGTGGCTACGACGGGATT
B16: GCGGGAC (DNA:RNA)
RNA: B1 RNA with A25G, A28G, C29G, C30A
DNA 1: CAATCTGAATTCCGGTCTCCC
DNA 2: TGGTGGCTACGACGGGATT
B17: CACGAGA (DNA:RNA)
RNA: B4 RNA with U25C, U26A, A27C, U29A, A30G
DNA 1: CAATCTGAATTCCGGTCTCCC
DNA 2: TGGTGGCTACGACGGGATT
B18: UUUGAAG (DNA:RNA)
RNA: B4 RNA with A27U, U29A, A31G
DNA 1: CAATCTGAATTCCGGTCTCCC
DNA 2: TGGTGGCTACGACGGGATT
B19: CAGUAUG (DNA:RNA)
RNA: B1 RNA with A25C, C26A, A28U, C29A, C30U, C31G
DNA 1: CAATCTGAATTCCGGTCTCCC
DNA 2: TGGTGGCTACGACGGGATT
B20: CUUGCCG (DNA:RNA)
RNA: B1 RNA with A25C, C26U, G27U, A28G, C31G
DNA 1: CAATCTGAATTCCGGTCTCCC
DNA 2: TGGTGGCTACGACGGGATT
B21: UCAAGUG (DNA:RNA)
RNA: B1 RNA with A25U, G27A, C29G, C30U, C31G
DNA 1: CAATCTGAATTCCGGTCTCCC
DNA 2: TGGTGGCTACGACGGGATT
B22: AUCCUGG (DNA:RNA)
RNA: B4 RNA with U25A, A27C, G28C, A30G, A31G
DNA 1: CAATCTGAATTCCGGTCTCCC
DNA 2: TGGTGGCTACGACGGGATT
B23: CGUGCGA (DNA:RNA)
RNA: B4 RNA with U25C, U26G, A27U, U29C, A30G
DNA 1: CAATCTGAATTCCGGTCTCCC
DNA 2: TGGTGGCTACGACGGGATT
B24: GACAUUA (DNA:RNA)
RNA: B4 RNA with U25G, U26A, A27C, G28A, A30U
DNA 1: CAATCTGAATTCCGGTCTCCC
DNA 2: TGGTGGCTACGACGGGATT
B25: UUGACCA (DNA:RNA)
RNA: B1 RNA with A25U, C26U, C31A
DNA 1: CAATCTGAATTCCGGTCTCCC
DNA 2: TGGTGGCTACGACGGGATT
B26: UUAUCCC (DNA:RNA)
RNA: B1 RNA with A25U, C26U, G27A, A28U
DNA 1: CAATCTGAATTCCGGTCTCCC
DNA 2: TGGTGGCTACGACGGGATT
B27: UCAUCCG (DNA:RNA)
RNA: B1 RNA with A25U, G27A, A28U, C31G
DNA 1: CAATCTGAATTCCGGTCTCCC
DNA 2: TGGTGGCTACGACGGGATT
B28: AUCUCGU (DNA:RNA)
RNA: B1 RNA with C26U, G27C, A28U, C30G, C31U
DNA 1: CAATCTGAATTCCGGTCTCCC
DNA 2: TGGTGGCTACGACGGGATT
B29: AGAGCAC (DNA:RNA)
RNA: B1 RNA with C26G, G27A, A28G, C30A
DNA 1: CAATCTGAATTCCGGTCTCCC
DNA 2: TGGTGGCTACGACGGGATT
B30: UAGGGUU (DNA:RNA)
RNA: B4 RNA with U26A, A27G, U29G, A30U, A31U
DNA 1: CAATCTGAATTCCGGTCTCCC
DNA 2: TGGTGGCTACGACGGGATT
B31: AGACGUA (DNA:RNA)
RNA: B4 RNA with U25A, U26G, G28C, U29G, A30U
DNA 1: CAATCTGAATTCCGGTCTCCC
DNA 2: TGGTGGCTACGACGGGATT

What follows are binders tested against T1, RBFOX1 RRM RbFoxmut (Fox-RRM*) (Homo sapiens, UniProt Q9NWB1 109-208, R118D;E147R;N151S;E152T) (assay: EMSA; HiTS-Eq, 1 nM pool, 10 min; buffer printed only for the single-RNA assays: 10 mM Tris pH 7.5, 150 mM NaCl, 3.4 mM EDTA, 0.001% NP-40, 30 C). Conditions: tags: His6 N-terminal (pET28a); label: 5' 32P.
T1 sequence: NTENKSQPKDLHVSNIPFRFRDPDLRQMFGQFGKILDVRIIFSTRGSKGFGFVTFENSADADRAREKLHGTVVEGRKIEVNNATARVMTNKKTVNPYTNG
In short: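 Purified RbFox RRM, wild type or mutant, was incubated for 10 min in 50 µL with 1 nM of a 5′-radiolabelled RNA pool carrying 7 randomized nucleotides, whose flanks were annealed to DNA oligonucleotides, over a series of increasing protein concentrations. Unbound RNA was resolved on 8% native PAGE, cut out, reverse-transcribed, barcoded by PCR and sequenced on an Illumina HiSeq 2500. Relative association constants were derived from changes in read counts for each RNA species versus the control reaction and normalised to the cognate motif.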
In the case of B1, the binding signal is reported as 0.0588 KA relative to UGCAUGU. B2 was tested, and the binding signal was 0.0767 KA relative to UGCAUGU. B3 was tested, and the binding signal was 0.125 KA relative to UGCAUGU. With B4 the binding signal was 0.133 KA relative to UGCAUGU. In the case of B5, the binding signal is reported as 0.362 KA relative to UGCAUGU. For B6, the binding signal was 0.125 KA relative to UGCAUGU. B7 was tested, and the binding signal was 0.12 KA relative to UGCAUGU. B8 was tested, and the binding signal was 0.116 KA relative to UGCAUGU. In the case of B9, the binding signal is reported as 0.114 KA relative to UGCAUGU. With B10 the binding signal was 0.118 KA relative to UGCAUGU. B11 was tested, and the binding signal was 0.362 KA relative to UGCAUGU. With B12 the binding signal was 0.0683 KA relative to UGCAUGU. With B13 the binding signal was 0.129 KA relative to UGCAUGU. For B14, the binding signal was 0.0764 KA relative to UGCAUGU. B15 was tested, and the binding signal was 0.0656 KA relative to UGCAUGU. For B16, the binding signal was 0.0962 KA relative to UGCAUGU. With B17 the binding signal was 0.0868 KA relative to UGCAUGU. B18 was tested, and the binding signal was 0.1 KA relative to UGCAUGU. For B19, the binding signal was 0.566 KA relative to UGCAUGU. B20 was tested, and the binding signal was 0.098 KA relative to UGCAUGU. For B21, the binding signal was 0.117 KA relative to UGCAUGU. With B22 the binding signal was 0.106 KA relative to UGCAUGU. With B23 the binding signal was 0.0992 KA relative to UGCAUGU. B24 was tested, and the binding signal was 0.103 KA relative to UGCAUGU. For B25, the binding signal was 0.0867 KA relative to UGCAUGU. For B26, the binding signal was 0.0744 KA relative to UGCAUGU. With B27 the binding signal was 0.0962 KA relative to UGCAUGU. With B28 the binding signal was 0.136 KA relative to UGCAUGU. With B29 the binding signal was 0.106 KA relative to UGCAUGU. B30 was tested, and the binding signal was 0.108 KA relative to UGCAUGU. For B31, the binding signal was 0.115 KA relative to UGCAUGU.
